Measured values: the supplement of paper PMC11417369
Some of the results follow.

Tested on: PF3D7_0420300 AP2 domain 1 (GST-tagged)
Assay: gcPBM binding intensity (ln(normalized median fluorescence intensity)); higher = stronger DNA binding
In short: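 Plasmodium falciparum DNA-binding domains carrying a GST tag were expressed in E. coli and applied for 1 h, at about 25 μg on average, to an Agilent 4 × 180k array. The array held primer-extended double-stranded 36-bp intergenic genomic probes together with negative controls, and binding took place in 1× PBS with 1% milk, 0.2 mg/ml BSA, 0.5% salmon testes DNA and 0.03% Triton X-100. An Alexa488 anti-GST antibody detected bound protein, and the array was scanned at 488 nm. Binding intensity is taken as the highest Masliner-normalised natural-log median intensity across replicate spots of either probe orientation.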

Sequence	gcPBM binding intensity (ln)
ATTACGATAGAGAAATGTACATATATATATGTAAGT [XGTACX_site1200]	9.51
TATTTTATAAATTAATGTACATAAATTATATCTACT [XGTACX_site3625]	9.05
GATCAAAATTATAGAAGTACTTTATATAAATAAAAT [XGTACX_site8161]	9.17
TATATATATAAGATTGTGCACATTAAAATGATAGAA [GTGCAC_site9621]	9.4
TCATAAATACATTTTGCATGTAAAATATAGAATACA [TGCATGCA_site755]	9.14
TCTATAAAATATAAAAGTACGTATCAATAATTAAAA [XGTACX_site8469]	9.21
ATATATTAAAAGGATTAGGAAAAAATATGATTTATC [TGCATGCA_negctrl_site405]	9.27
ATAGAATCTGGTAGCTGTACGAGTCGTAGAGTGTAG [XGTACX_site2016]	9.33
AAGTAAAAAAAAAAAAGTACATGTTTATATAAATAT [XGTACX_site4741]	9.35
ATAAATTAACATTAAAGTACATTTTAATAAATATTA [XGTACX_site3647]	8.85
ATACATATATATAATACACACATAAATGTAACATTT [CACACA_site3518]	9.55
ATCCCCATAAAAAATACACACAAATATTTATACATA [CACACA_site1001]	9.67
AATAATAAAGTGAACACACACATATAATATATATAT [CACACA_site4143]	9.81
ATAATTAAAATGCTCACACACATAAAAAAAAATTAA [CACACA_site2149]	9.62
ATAATTTTATCATATATATATATATATAAATACTTA [CACACA_negctrl_site743]	9.09
ATGCTTTTATGCACACGTACAAAAATATTATATAAT [XGTACX_site5589]	9.2
AAAAATTGAATTTTTTTTTTTTTTTTGAGAAGGAAA [CACACA_negctrl_site1196]	8.62
AATATTTTTGTCGTTAGTACATAAAAAATAATAATA [XGTACX_site3074]	9.02
AAAAAAAAAACATACACACATACATACATATATATT [CACACA_site949]	9.91
ATGAAGAATTTATATTGTACCCATTTTTATGTAAAT [XGTACX_site2528]	9.24
CGAAAAAGTGATATAGTGCAAAATTTTCATTTCTCT	9.21
TTGTTATTATATTACGCATGCATCATTTATTTGCAC [TGCATGCA_site525]	9.49

Sequence	gcPBM binding intensity (ln)
AAAGGGAATTATGGCTGTACGCATTTTATAAATAGC [XGTACX_site5878]	9.14
TTTTTTTTTCTTCTTTTCAAATTTAAGAAATTATAA [CACACA_negctrl_site18]	8.78
TGCTGTATATTTTTCTGTACACATTTATATATTCCA [XGTACX_site6244]	9.67
AAGAATAAGAAGAAGGATCCCCTTCAAAAAAAAAAA [TGCATGCA_negctrl_site525]	8.96
TATATAGATATGATAGTGCATTTTTAGAAAACATAA [GTGCAC_site9962]	9.09
TTATGTAGCTAGCTATAAACTTTTTTTTATTTAAAA [CACACA_negctrl_site1297]	8.81
AACAGATAAAAGGGTACACACATATATACAAGTACA [CACACA_site7959]	9.9
ATATATATATATATATGTACATACTATACAATAATT [XGTACX_site3546]	9.36
ATTATTATTAAATACACACACATACCTCCATGTTAG [CACACA_site3430]	9.83
GATATAATTATGTGTACACAATTTTTTTTTTTTTTT [CACACA_site4501]	9.23
AAATAAAGGAAATAAAAAGAAACCAATTTCGAATAT [CACACA_negctrl_site953]	9.57
TTTATATGTATTAATTGTACACATATAATGTGTTTT [XGTACX_site3064]	9.28
TTTTTTTTAAAACTATGTACGTAAAAATTGTAGTTT [XGTACX_site2302]	8.92
ATATGTATGTATAATCGTACAAAATTTGGCGATCTT [XGTACX_site8698]	9.19
AGAACTTTTAATGGATGTACAGTTATTTTATTATTT [XGTACX_site6226]	9.41
ATATAGTAAATTGGTAGTACATAAAATGATTTTATG [XGTACX_site4143]	9.26
AAAAAAGAACGCATAGTGCATATCTAAAAGATTTTT	9.05
GATAAATTAAGACACACACACATATATTTATTTATA [CACACA_site7789]	10
TAGTATTAGATATATACACACATATATACCTATAGA [CACACA_site7083]	9.49
TTACGATCATCAATATGTACATATATATATATATAT [XGTACX_site4301]	9.24
ATTTTTTTTTTTATAGTGGATCCACATTTGCCATTT [CACACA_negctrl_site1106]	9.24
TATAAAAAAATATTATAATATATATATATATATATA [XGTACX_negctrl_site41]	8.99

Sequence	gcPBM binding intensity (ln)
AATATTTATATTTACACACACATAATACATCTATGT [CACACA_site4187]	9.91
TATAAATAAAGATATACACACATATAAATATTTTTC [CACACA_site7798]	9.5
TTGGTCTTTTAAAAAAGTACAAAAAAAAAAAAAAAA [XGTACX_site1665]	8.5
TTTTAATTTATTAATTGTACATGTATTTTAAGATTA [XGTACX_site8417]	9
TTATTATTAAAAAAAAGTACAGAATTGAATAATACA [XGTACX_site651]	9.23
ATTTTTGTGTATTAATGTACTTTATGCATATTTGAC [XGTACX_site3353]	9.5
TAAACATTTGGCTGATGTACTTGCTACCTTAAATCA [XGTACX_site5514]	9.1
TATTTTTATAAGTAAAAGGAGCACAGTTAAAGGATC [XGTACX_negctrl_site362]	9.72
TTTATAAAAATGAACACACACATATAAATATAAATA [CACACA_site7607]	9.91
TTTTAAATATGAACATGTACATGTAAATTTACATGT [XGTACX_site4573]	9.07
AATAATATATTTAGGGGTACATAATAATATATTTTA [XGTACX_site8366]	9.27
AAAAATAGAATAAATACACACCCGTGTAACGGATTT [CACACA_site3372]	9.45
ATTAAATACATTAACACACACACAAATATATACATA [CACACA_site2881]	10.1
AATAATAATACTAATCGTACGCATATTTTTCAAACC [XGTACX_site8055]	9.36
CATTTAACATAAATTAAACACACAATATAATACATT [CACACA_site8333]	9.54
AAAGATAAAATATTATGTACATATATATATATATAT [XGTACX_site5079]	9.09
TATAAAAAAAACAAAAAAAAAAAAAAACAAAAAAAA [TGCATGCA_negctrl_site514]	9.44
TTTTTTTGTTGTTGTTGTACGATATTTTCCTTATCA [XGTACX_site2375]	9.61
TGTATAAAAGTTTATACACACATTTGATATATTTCA [CACACA_site6606]	9.24
TTTTATTTTTATTATACACACGCTTAATAAATGCAT [CACACA_site1751]	9.29
GGGAATATAAGTACACGATAATATGTGATAAGGTCT [CACACA_negctrl_site1502]	9.5
GGGGGGATGAGATATTGTACTTTTTAGGAAAGTGTA [XGTACX_site2835]	10

Sequence	gcPBM binding intensity (ln)
AAAAAAAAGTTAAGCACACACATGAATAAATAATAC [CACACA_site840]	9.89
CCTAGAAAAGTATATACACACGCGCAAAATAAAATT [CACACA_site1413]	9.7
TTAACCGGTTTATGGGTGCACATTCTTCTTAAATAA [GTGCAC_site9928]	9.13
CATGTTCATCAGAACGCACACATAATGGTTTACTTA [CACACA_site898]	9.39
AAGAAAAAAAAAATTACACACTGCGCACATACACAA [CACACA_site6721]	9.82
ACTTATATAAAACATTAACACACAAAGAAAAAAAAT [CACACA_site8529]	9.96
GATACACCAAATAACTGTACGCACGTGTAATATTAA [XGTACX_site3441]	9.29
GTGTATATGTATATATGTACATAAATTTTTTTTTTT [XGTACX_site7083]	9.06
AGTAACTAATTAAATGCATGTCGATATATATTATAT [TGCATGCA_site1038]	9.35
TATATATATATATATACACACATATATACCTATATA [CACACA_site6085]	9.31
TATAATGATAATAATAGTACACATTAGAACGGGAGG [XGTACX_site2563]	9.67
TCTTTTTTTTATTATATCATTGAAATGTTAAAACGA [XGTACX_negctrl_site473]	8.99
ATAATATTATTTAAAAGTACTAACAAAAGAATATTA [XGTACX_site4989]	9.27
CCTATTATTTCTAAAACACACAAAAATATAAAAGAA [CACACA_site2708]	9.47
TTTTGATAGAAGTGTTCTAGGAATTCAACTGTAATA [GTGCAC_negctrl_site585]	8.95
TGAAAAAAAAAATACACACACGAGTTGTTATACATA [CACACA_site7486]	9.67
ATTAAAAAAATTGGCACACATAAAAATATATAAAAA [CACACA_site2748]	9.53
GTTTTTAATGTTTTGACATGCAATATTAAAAATAAT [TGCATGCA_site174]	8.95
AACAGATATGAATAGAAAAAAAAAAATGGCCCATAT [TGCATGCA_negctrl_site443]	9.26
GACCACTTTAGGATTTGTACACATATTATATATGCA [XGTACX_site6579]	9.44
ATAAAAAAAAATAACACACAGACATAAGAATAAATA [CACACA_site4162]	9.77
TAGCCATTTTTATATTGTACTTATATAATCACATTT [XGTACX_site4407]	9.35
